Assay results from PMC12820563.
The list shows a part of the results. The list includes weakly bound sequences.

biological target: T1, MBP-FoxP3dN (UniProt Q99JB6); assay: PD-seq (MBP pull-down with sequencing); details: 20 mM Tris-HCl pH 7.5, 100 mM NaCl, 1.5 mM MgCl2, 0.4 uM protein, 0.1 uM dsDNA library, 30 min, room temperature, amylose pull-down; high values mean tight binding; double strand, one strand shown
T1 sequence: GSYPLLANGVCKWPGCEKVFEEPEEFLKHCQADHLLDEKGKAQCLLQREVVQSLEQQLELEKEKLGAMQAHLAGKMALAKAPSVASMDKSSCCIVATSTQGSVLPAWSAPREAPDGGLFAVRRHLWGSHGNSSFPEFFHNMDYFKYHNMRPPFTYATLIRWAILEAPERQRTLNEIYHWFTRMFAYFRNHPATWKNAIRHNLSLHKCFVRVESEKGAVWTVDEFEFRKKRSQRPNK

| Sequence | binding signal (RPM ratio (pull-down/input)) |
| --- | --- |
| GATGATTGTTCTCCCAGCTGATGAATTCGGTATCTCGAGTAAACAAATTTTCCTAATCTTTCTGTTCAAGCGCCATCTAC | 3.08 |
| GATGATTGTTCTCCCAGCTGATGAATTCCCGTTATCGAGTAAACAAATTTTCCTAATCTTTCTGTTCAAGCGCCATCTAC | 0.53 |
| GATGATTGTTCTCCCAGCTGATGAATTGATTGACTCGAGTAAACAAATTTTCCTAATCTTTCTGTTCAAGCGCCATCTAC | 2.07 |
| GATGATTGTTCTCCCAGCTGATGAATTGTATCGTTCGAGTAAACAAATTTTCCTAATCTTTCTGTTCAAGCGCCATCTAC | 1.84 |
| GATGATTGTTCTCCCAGCTGATGAATTTCTGCGTTCGAGTAAACAAATTTTCCTAATCTTTCTGTTCAAGCGCCATCTAC | 1.57 |
| GATGATTGTTCTCCCAGCTGATGAATTACGACGGTCGAGTAAACAAATTTTCCTAATCTTTCTGTTCAAGCGCCATCTAC | 0.331 |
| GATGATTGTTCTCCCAGCTGATGAATTGACGGATTCGAGTAAACAAATTTTCCTAATCTTTCTGTTCAAGCGCCATCTAC | 0.323 |
| GATGATTGTTCTCCCAGCTGATGAATTATCGCTTTCGAGTAAACAAATTTTCCTAATCTTTCTGTTCAAGCGCCATCTAC | 0.99 |
| GATGATTGTTCTCCCAGCTGATGAATTGGGTTGGTCGAGTAAACAAATTTTCCTAATCTTTCTGTTCAAGCGCCATCTAC | 0.989 |
| GATGATTGTTCTCCCAGCTGATGAATTGACTTTCTCGAGTAAACAAATTTTCCTAATCTTTCTGTTCAAGCGCCATCTAC | 0.418 |
| GATGATTGTTCTCCCAGCTGATGAATTGTGGCCGTCGAGTAAACAAATTTTCCTAATCTTTCTGTTCAAGCGCCATCTAC | 1.2 |
| GATGATTGTTCTCCCAGCTGATGAATTCTGTACCTCGAGTAAACAAATTTTCCTAATCTTTCTGTTCAAGCGCCATCTAC | 1.31 |
| GATGATTGTTCTCCCAGCTGATGAATTACTCAAATCGAGTAAACAAATTTTCCTAATCTTTCTGTTCAAGCGCCATCTAC | 0.262 |
| GATGATTGTTCTCCCAGCTGATGAATTGTCCGCTTCGAGTAAACAAATTTTCCTAATCTTTCTGTTCAAGCGCCATCTAC | 0.3 |
| GATGATTGTTCTCCCAGCTGATGAATTTACACAATCGAGTAAACAAATTTTCCTAATCTTTCTGTTCAAGCGCCATCTAC | 1.5 |
| GATGATTGTTCTCCCAGCTGATGAATTCTTTGACTCGAGTAAACAAATTTTCCTAATCTTTCTGTTCAAGCGCCATCTAC | 0.216 |

| Sequence | binding signal (RPM ratio (pull-down/input)) |
| --- | --- |
| GATGATTGTTCTCCCAGCTGATGAATTGGATAGGTCGAGTAAACAAATTTTCCTAATCTTTCTGTTCAAGCGCCATCTAC | 0.342 |
| GATGATTGTTCTCCCAGCTGATGAATTCAAACGATCGAGTAAACAAATTTTCCTAATCTTTCTGTTCAAGCGCCATCTAC | 0.287 |
| GATGATTGTTCTCCCAGCTGATGAATTCGGGGTCTCGAGTAAACAAATTTTCCTAATCTTTCTGTTCAAGCGCCATCTAC | 0.661 |
| GATGATTGTTCTCCCAGCTGATGAATTGTTTGAATCGAGTAAACAAATTTTCCTAATCTTTCTGTTCAAGCGCCATCTAC | 1.05 |
| GATGATTGTTCTCCCAGCTGATGAATTAGGGAGCTCGAGTAAACAAATTTTCCTAATCTTTCTGTTCAAGCGCCATCTAC | 0.24 |
| GATGATTGTTCTCCCAGCTGATGAATTAGTTAACTCGAGTAAACAAATTTTCCTAATCTTTCTGTTCAAGCGCCATCTAC | 0.747 |
| GATGATTGTTCTCCCAGCTGATGAATTATTCCCATCGAGTAAACAAATTTTCCTAATCTTTCTGTTCAAGCGCCATCTAC | 0.334 |
| GATGATTGTTCTCCCAGCTGATGAATTCCGACTGTCGAGTAAACAAATTTTCCTAATCTTTCTGTTCAAGCGCCATCTAC | 0.952 |
| GATGATTGTTCTCCCAGCTGATGAATTAAGTACCTCGAGTAAACAAATTTTCCTAATCTTTCTGTTCAAGCGCCATCTAC | 0.612 |
| GATGATTGTTCTCCCAGCTGATGAATTTGTGGCATCGAGTAAACAAATTTTCCTAATCTTTCTGTTCAAGCGCCATCTAC | 3.35 |
| GATGATTGTTCTCCCAGCTGATGAATTAGTGACATCGAGTAAACAAATTTTCCTAATCTTTCTGTTCAAGCGCCATCTAC | 0.993 |
| GATGATTGTTCTCCCAGCTGATGAATTAATGGTTTCGAGTAAACAAATTTTCCTAATCTTTCTGTTCAAGCGCCATCTAC | 0.958 |
| GATGATTGTTCTCCCAGCTGATGAATTTTCCCTCTCGAGTAAACAAATTTTCCTAATCTTTCTGTTCAAGCGCCATCTAC | 0.249 |
| GATGATTGTTCTCCCAGCTGATGAATTCTTGCAATCGAGTAAACAAATTTTCCTAATCTTTCTGTTCAAGCGCCATCTAC | 2.8 |
| GATGATTGTTCTCCCAGCTGATGAATTGTATGATTCGAGTAAACAAATTTTCCTAATCTTTCTGTTCAAGCGCCATCTAC | 2.94 |
| GATGATTGTTCTCCCAGCTGATGAATTTTATGCGTCGAGTAAACAAATTTTCCTAATCTTTCTGTTCAAGCGCCATCTAC | 0.925 |
